# Experimental data reported in the supplement of paper PMC8728848.
# The other results are listed elsewhere or left out.
# Assays:
# Assay in all cases: glycan array binding signal (z-score within array); higher = stronger binding
# Conditions in all cases: glycan notation: IUPAC condensed, linker removed
# [1] = target: Gal(b1-3)GalNAc(b1-3)Gal(a1-4)Gal(b1-4)Glc
# Summary of the method: (§1)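 Arrays were curated from the Consortium for Functional Glycomics database, 3228 in total, and kept only where the protein sequence was available. Binding is expressed as a within-array Z-score. This score was averaged across arrays of the same protein sequence at different concentrations or buffers and across linkers, and negative values can be read as non-binding.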
# [2] = target: Gal(b1-3)GalNAc(b1-4)Gal(b1-4)Glc
# Summary of the method: as §1
# [3] = target: Gal(b1-3)GalNAc(b1-4)[Neu5Ac(a2-3)]Gal(b1-4)Glc
# Summary of the method: as §1
# [4] = target: Gal(b1-3)GlcNAc
# Summary of the method: as §1
# [5] = target: Gal(b1-3)GlcNAc(a1-3)Gal(b1-4)GlcNAc
# Summary of the method: as §1
# [6] = target: Gal(b1-3)GlcNAc(a1-6)Gal(b1-4)GlcNAc
# Summary of the method: as §1
# [7] = target: Gal(b1-3)GlcNAc(b1-2)Man
# Summary of the method: as §1
# [8] = target: Gal(b1-3)GlcNAc(b1-2)Man(a1-3)[Gal(b1-3)GlcNAc(b1-2)Man(a1-6)]Man(b1-4)GlcNAc(b1-4)GlcNAc
# Summary of the method: as §1
# [9] = target: Gal(b1-3)GlcNAc(b1-2)Man(a1-3)[Gal(b1-3)GlcNAc(b1-2)Man(a1-6)]Man(b1-4)GlcNAc(b1-4)[Fuc(a1-6)]GlcNAc
# Summary of the method: as §1
# [10] = target: Gal(b1-3)GlcNAc(b1-2)Man(a1-3)[GlcNAc(b1-4)][Gal(b1-3)GlcNAc(b1-2)Man(a1-6)]Man(b1-4)GlcNAc(b1-4)GlcNAc
# Summary of the method: as §1
# [11] = target: Gal(b1-3)GlcNAc(b1-2)[Gal(b1-3)GlcNAc(b1-6)]Man(a1-6)[Gal(b1-3)GlcNAc(b1-2)Man(a1-3)]Man(b1-4)GlcNAc(b1-4)GlcNAc
# Summary of the method: as §1
# [12] = target: Gal(b1-3)GlcNAc(b1-3)Gal(b1-3)GlcNAc
# Summary of the method: as §1
# [13] = target: Gal(b1-3)GlcNAc(b1-3)Gal(b1-4)Glc
# Summary of the method: as §1
# [14] = target: Gal(b1-3)GlcNAc(b1-3)Gal(b1-4)GlcNAc
# Summary of the method: as §1
# [15] = target: Gal(b1-3)GlcNAc(b1-3)Gal(b1-4)GlcNAc(b1-2)Man(a1-3)[Gal(b1-3)GlcNAc(b1-3)Gal(b1-4)GlcNAc(b1-2)Man(a1-6)]Man(b1-4)GlcNAc(b1-4)GlcNAc
# Summary of the method: as §1
# [16] = target: Gal(b1-3)GlcNAc(b1-3)Gal(b1-4)GlcNAc(b1-2)[Gal(b1-3)GlcNAc(b1-3)Gal(b1-4)GlcNAc(b1-6)]Man(a1-6)[Gal(b1-3)GlcNAc(b1-3)Gal(b1-4)GlcNAc(b1-2)Man(a1-3)]Man(b1-4)GlcNAc(b1-4)[Fuc(a1-6)]GlcNAc
# Summary of the method: as §1
# [17] = target: Gal(b1-3)GlcNAc(b1-3)Gal(b1-4)GlcNAc(b1-3)Gal(b1-4)GlcNAc(b1-2)[Gal(b1-3)GlcNAc(b1-3)Gal(b1-4)GlcNAc(b1-3)Gal(b1-4)GlcNAc(b1-6)]Man(a1-6)[Gal(b1-3)GlcNAc(b1-3)Gal(b1-4)GlcNAc(b1-3)Gal(b1-4)GlcNAc(b1-2)Man(a1-3)]Man(b1-4)GlcNAc(b1-4)[Fuc(a1-6)]GlcNAc
# Summary of the method: as §1
# [18] = target: Gal(b1-3)GlcNAc(b1-3)Gal(b1-4)GlcNAc(b1-6)[Gal(b1-3)GlcNAc(b1-3)]Gal(b1-4)Glc
# Summary of the method: as §1
# [19] = target: Gal(b1-3)GlcNAc(b1-3)Gal(b1-4)[Fuc(a1-3)]GlcNAc
# Summary of the method: as §1
# [20] = target: Gal(b1-3)GlcNAc(b1-3)Gal(b1-4)[Fuc(a1-3)]GlcNAc(b1-6)[Gal(b1-3)GlcNAc(b1-3)]Gal(b1-4)Glc
# Summary of the method: as §1
# [21] = target: Gal(b1-3)GlcNAc(b1-3)GalNAc
# Summary of the method: as §1
# [22] = target: Gal(b1-3)GlcNAc(b1-6)Gal(b1-4)GlcNAc
# Summary of the method: as §1
# [23] = target: Gal(b1-3)GlcNAc(b1-6)GalNAc
# Summary of the method: as §1
# [24] = target: Gal(b1-3)GlcNAc(b1-6)[Gal(b1-3)]GalNAc
# Summary of the method: as §1
# [25] = target: Gal(b1-3)GlcNAc6S
# Summary of the method: as §1
# [26] = target: Gal(b1-3)[Fuc(a1-4)]GlcNAc
# Summary of the method: as §1
# [27] = target: Gal(b1-3)[Fuc(a1-4)]GlcNAc(b1-2)Man
# Summary of the method: as §1
# [28] = target: Gal(b1-3)[Fuc(a1-4)]GlcNAc(b1-2)Man(a1-3)[Gal(b1-3)[Fuc(a1-4)]GlcNAc(b1-2)Man(a1-6)]Man(b1-4)GlcNAc(b1-4)[Fuc(a1-6)]GlcNAc
# Summary of the method: as §1
# [29] = target: Gal(b1-3)[Fuc(a1-4)]GlcNAc(b1-3)Gal(b1-3)[Fuc(a1-4)]GlcNAc
# Summary of the method: as §1
# [30] = target: Gal(b1-3)[Fuc(a1-4)]GlcNAc(b1-3)Gal(b1-4)[Fuc(a1-3)]GlcNAc
# Summary of the method: as §1
# [31] = target: Gal(b1-3)[Fuc(a1-4)]GlcNAc(b1-6)GalNAc
# Summary of the method: as §1
# [32] = target: Gal(b1-3)[GlcNAc(b1-6)]GalNAc
# Summary of the method: as §1
# [33] = target: Gal(b1-3)[Neu5Ac(a2-6)]GalNAc
# Summary of the method: as §1
# [34] = target: Gal(b1-3)[Neu5Ac(a2-6)]GlcNAc(b1-4)Gal(b1-4)Glc
# Summary of the method: as §1
# [35] = target: Gal(b1-3)[Neu5Ac(b2-6)]GalNAc
# Summary of the method: as §1
# [36] = target: Gal(b1-4)Gal
# Summary of the method: as §1
# [37] = target: Gal(b1-4)GalNAc(a1-3)[Fuc(a1-2)]Gal(b1-4)GlcNAc
# Summary of the method: as §1
# [38] = target: Gal(b1-4)GalNAc(b1-3)[Fuc(a1-2)]Gal(b1-4)GlcNAc
# Summary of the method: as §1
binder,measurement,setting,value
diCBM40 CPF071 (Clostridium perfringens) (protein) MAHHHHHHVGTGSNDDDDKSPDPMLSSLGEYKDINLESSNASNITYDLEKYKNLDEGTIVVRFNSKDSKIQSLLGISNSKTKNGYFNFYVTNSRVGFELRNQKNEGNTQNGTENLVHMYKDVALNDGDNTVALKIEKNKGYKLFLNGKMIKEVKDTNTKFLNNIENLDSAFIGKTNRYGQSNEYNFKGNIGFMNIYNEPLGDDYLLSKTGETKALNGSELGSGSGLSSLGEYKDINLESSNASNITYDLEKYKNLDEGTIVVRFNSKDSKIQSLLGISNSKTKNGYFNFYVTNSRVGFELRNQKNEGNTQNGTENLVHMYKDVALNDGDNTVALKIEKNKGYKLFLNGKMIKEVKDTNTKFLNNIENLDSAFIGKTNRYGQSNEYNFKGNIGFMNIYNEPLGDDYLLSKTGETK,glycan array binding signal (z-score),[1],-0.349
same,glycan array binding signal (z-score),[2],-0.216
same,glycan array binding signal (z-score),[3],-0.3
same,glycan array binding signal (z-score),[4],-0.316
same,glycan array binding signal (z-score),[5],-0.311
same,glycan array binding signal (z-score),[6],-0.263
same,glycan array binding signal (z-score),[7],-0.346
same,glycan array binding signal (z-score),[8],-0.168
same,glycan array binding signal (z-score),[9],-0.233
same,glycan array binding signal (z-score),[10],-0.26
same,glycan array binding signal (z-score),[11],-0.337
same,glycan array binding signal (z-score),[12],-0.294
same,glycan array binding signal (z-score),[13],-0.345
same,glycan array binding signal (z-score),[14],-0.346
same,glycan array binding signal (z-score),[15],-0.313
same,glycan array binding signal (z-score),[16],-0.108
same,glycan array binding signal (z-score),[17],0.504
same,glycan array binding signal (z-score),[18],-0.337
same,glycan array binding signal (z-score),[19],-0.329
same,glycan array binding signal (z-score),[20],-0.341
same,glycan array binding signal (z-score),[21],-0.256
same,glycan array binding signal (z-score),[22],-0.332
same,glycan array binding signal (z-score),[23],-0.269
same,glycan array binding signal (z-score),[24],-0.214
same,glycan array binding signal (z-score),[25],-0.315
same,glycan array binding signal (z-score),[26],-0.33
same,glycan array binding signal (z-score),[27],-0.096
same,glycan array binding signal (z-score),[28],-0.207
same,glycan array binding signal (z-score),[29],-0.31
same,glycan array binding signal (z-score),[30],-0.238
same,glycan array binding signal (z-score),[31],-0.151
same,glycan array binding signal (z-score),[32],-0.302
same,glycan array binding signal (z-score),[33],0.025
same,glycan array binding signal (z-score),[34],-0.182
same,glycan array binding signal (z-score),[35],-0.289
same,glycan array binding signal (z-score),[36],-0.153
same,glycan array binding signal (z-score),[37],-0.33
same,glycan array binding signal (z-score),[38],-0.349
